Results from the supplement of paper PMC7826260.
The other results are listed elsewhere or left out. Each Rep nickase domain was tested in vitro on the same pool of single strands at 3 µM enzyme and 37 °C for 1 h; the strands have 90 letters, of which the middle is given. Values are log2 of uncut reads against the no-enzyme pool; strong cutting gives strongly negative numbers. There is no active / inactive call. Shares of all reads are compared, so uncut sequences can rise above 0 when many others are cut.

Key:
Experiment in all cases: uncleaved DNA left, log2 of reads against the no-enzyme library (log2 ratio); higher = less cleavage (more negative = more Rep cleavage of the k-mer); sequences stand for … in CTCGTCCG…ACCGGAGA
[1] = system: T1, Rep nickase domain of Muscovy duck circovirus
T1 sequence (residues 1-111, tag not shown): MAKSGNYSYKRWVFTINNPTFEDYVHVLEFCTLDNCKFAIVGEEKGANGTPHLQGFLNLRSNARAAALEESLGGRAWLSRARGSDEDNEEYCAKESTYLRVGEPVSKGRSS
Protocol: (§1)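 A pool of 90-nt single-stranded DNAs with seven random bases just before the constant AC of the nick site (name = the seven bases) was cut by 3 µM recombinant His6-SUMO-tagged Rep nickase domain (300 nM DNA, 50 mM HEPES pH 8.0, 50 mM NaCl, 1 mM MnCl2, 1 h, 37 °C, three replicates). Uncut DNA was amplified and sequenced.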

[2] = system: T2, Rep nickase domain of banana bunchy top virus
T2 sequence (residues 1-94, tag not shown): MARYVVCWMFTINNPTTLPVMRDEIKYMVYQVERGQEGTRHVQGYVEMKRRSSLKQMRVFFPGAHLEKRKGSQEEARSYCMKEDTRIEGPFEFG
Protocol: as §1

[3] = system: T3, Rep nickase domain of cabbage leaf curl virus
T3 sequence (residues 1-116, tag not shown): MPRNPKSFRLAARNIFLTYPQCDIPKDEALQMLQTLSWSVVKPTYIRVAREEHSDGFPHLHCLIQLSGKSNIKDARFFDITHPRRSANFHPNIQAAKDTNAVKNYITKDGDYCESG
Protocol: as §1

[4] = system: T4, Rep nickase domain of chickpea chlorotic dwarf virus
T4 sequence (residues 1-124, tag not shown): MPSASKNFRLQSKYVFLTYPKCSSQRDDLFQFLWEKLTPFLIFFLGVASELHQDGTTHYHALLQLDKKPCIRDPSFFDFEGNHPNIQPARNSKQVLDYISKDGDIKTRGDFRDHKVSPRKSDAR
Protocol: as §1

[5] = system: T5, Rep nickase domain of faba bean necrotic yellows virus
T5 sequence (residues 1-98, tag not shown): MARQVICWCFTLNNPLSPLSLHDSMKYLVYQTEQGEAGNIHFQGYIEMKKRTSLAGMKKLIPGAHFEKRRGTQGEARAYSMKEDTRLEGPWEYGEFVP
Protocol: as §1

[6] = system: T6, Rep nickase domain of maize striate mosaic virus
T6 sequence (residues 1-117, tag not shown): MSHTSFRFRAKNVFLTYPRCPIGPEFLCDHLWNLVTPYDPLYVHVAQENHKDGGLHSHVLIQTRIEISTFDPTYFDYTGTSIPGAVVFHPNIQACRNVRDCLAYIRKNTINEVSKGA
Protocol: as §1

[7] = system: T7, Rep nickase domain of porcine circovirus 2
T7 sequence (residues 2-116, tag not shown): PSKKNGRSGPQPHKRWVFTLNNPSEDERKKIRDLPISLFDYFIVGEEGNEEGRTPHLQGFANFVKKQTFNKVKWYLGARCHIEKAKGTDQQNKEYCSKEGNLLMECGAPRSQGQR
Protocol: as §1

[8] = system: T8, Rep nickase domain of tomato golden mosaic virus
T8 sequence (residues 1-124, tag not shown): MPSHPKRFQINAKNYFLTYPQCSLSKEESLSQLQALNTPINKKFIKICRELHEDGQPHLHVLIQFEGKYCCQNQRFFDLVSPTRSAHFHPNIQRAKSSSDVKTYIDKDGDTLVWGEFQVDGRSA
Protocol: as §1

[9] = system: T9, Rep nickase domain of tomato yellow leaf curl virus
T9 sequence (residues 1-136, tag not shown): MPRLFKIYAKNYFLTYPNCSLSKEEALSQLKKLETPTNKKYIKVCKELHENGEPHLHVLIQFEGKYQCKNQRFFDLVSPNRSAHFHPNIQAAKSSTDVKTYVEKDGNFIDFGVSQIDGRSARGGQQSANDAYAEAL
Protocol: as §1

[10] = system: T10, Rep nickase domain of wheat dwarf virus
T10 sequence (residues 1-137, tag not shown): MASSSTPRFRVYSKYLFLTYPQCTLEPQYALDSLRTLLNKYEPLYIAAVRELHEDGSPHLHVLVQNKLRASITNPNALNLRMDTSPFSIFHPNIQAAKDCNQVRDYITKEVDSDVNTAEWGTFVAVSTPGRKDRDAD
Protocol: as §1

Row | Sequence | uncleaved DNA left (log2) [1] | uncleaved DNA left (log2) [2] | uncleaved DNA left (log2) [3] | uncleaved DNA left (log2) [4] | uncleaved DNA left (log2) [5] | uncleaved DNA left (log2) [6] | uncleaved DNA left (log2) [7] | uncleaved DNA left (log2) [8] | uncleaved DNA left (log2) [9] | uncleaved DNA left (log2) [10]
1 | CCCTTAT | 0.0974 | -0.0717 | 0.466 | -0.188 | 0.101 | -0.0838 | -0.973 | 0.092 | -0.0677 | 0.157
2 | CGATGGC | 0.123 | 0.121 | -0.000675 | 0.239 | 0.00418 | -0.502 | 0.234 | 0.0294 | 0.179 | 0.12
3 | CAGCCAT | -0.048 | -0.062 | -0.0394 | -0.838 | -0.164 | -0.0731 | -1.07 | 0.071 | 0.0579 | -0.0581
4 | TACGTAT | 0.0673 | -0.0961 | -0.608 | -2.14 | -0.00824 | -0.335 | -0.417 | 0.0289 | -0.0863 | -0.138
5 | TGACTCC | 0.0265 | -0.0748 | 0.3 | 0.454 | 0.01 | 0.981 | -0.0321 | -0.049 | 0.0442 | 0.0284
6 | GCGGCGG | 0.0245 | -0.0133 | 0.054 | 0.582 | 0.0481 | 1.36 | 0.103 | 0.0512 | -0.155 | -0.038
7 | ATTTTTT | -3.14 | -2.99 | -0.115 | -2.67 | 0.0935 | -0.773 | -3.25 | 0.0308 | -0.0552 | -0.0478
8 | TCCTACC | -1.14 | -0.13 | -0.452 | -2.67 | -0.273 | -0.458 | -2.9 | -0.0489 | -0.0277 | -0.566
